Variants at the floor of the assay are shown more often than the library holds them.
B1: TPR 5TU (parent)
chain: GGAUCUUCUCGAUCUAACAAAAAAGACAAAUCUGCCACAAAGCUUGAGAGCAUCUUCGGAUGCAGAGGCGGCAGCCUUCGGUGGCGCGAUAGCGCCAACGUUCUCAACUAUGACACGCAAAACGCGUGCUCCGUUGAAUGGAGUUUAUCAUG

Variants of: B1
Assay: polymerase ribozyme fitness, log enrichment relative to wild type (log ratio); higher = more active; in vitro selection for triplet polymerase activity
How it was run: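 To select mutant libraries of each subunit of a heterodimeric triplet polymerase ribozyme, built by PCR and transcribed, each was annealed with a biotinylated primer, partner subunit and triplets, then incubated frozen at −7 °C. Extended constructs were gel-excised, captured on streptavidin beads and amplified by RT-PCR, in one round carried out in triplicate. Illumina sequencing of input and output libraries kept genotypes with ≥10 input reads and ≥1 read per output. Fitness is the base-2 logarithm of genotype enrichment relative to wild-type enrichment, from inverse-variance-weighted replicate averages.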

| Variant | polymerase ribozyme fitness (log ratio) |
| --- | --- |
| C10A A73U U104G C118G | ≤ -4.2 |
| U9G A19C U55A | ≤ -4.2 |
| C10G A40U C43A C125G G133A | ≤ -4.2 |
| U9C U15G G34A G50A C93U C125U | ≤ -4.2 |
| U9G A66U C75G C85U G94A G143C | ≤ -4.2 |
| C10A C85U | -4.01 |
| U9G G68A U139C | ≤ -4.2 |
| C10G C36U G70C C79A C95G A115U | ≤ -4.2 |
| C10A A16U A17C C76U G86A G88U A97G C103A A106U A142G | ≤ -4.2 |
| U9C C99G C114G U148A | ≤ -4.2 |
| C10A C93U G141A | ≤ -4.2 |
| C10A A66C G84A C87U | ≤ -4.2 |
| C10A A17C A49C C118U A137U C149U | ≤ -4.2 |
| U9G A20C A29U C35U A47C C54U U56A C96A U130G | ≤ -4.2 |
| U9G A47C C57A A66C C87A A89U A120U A121U C123A C125U U144A | ≤ -4.2 |
| C10G C38A G88A A97U | ≤ -4.2 |
| U9G A60G G74A | ≤ -4.2 |
| C10A G11A A39U C93A G141U | ≤ -4.2 |
| U9C A66G C76G G92U C114A | ≤ -4.2 |
| C10A A49C C57U G59A C69U G84A A98G | ≤ -4.2 |
| U9G A39C U55A A91G A120C G141A U144G | ≤ -4.2 |

| Variant | polymerase ribozyme fitness (log ratio) |
| --- | --- |
| C10G C18G G42U A49C G50A G74A G133C G143A | ≤ -4.2 |
| C10A A19C A28C U61A C85U U90A A98G U101C G124U | ≤ -4.2 |
| C10A A17C A41C A52C U53A C54U A60G U61A | ≤ -4.2 |
| C10A C14U C93G C149U | ≤ -4.2 |
| C10A A12G A73G U77A C93U | ≤ -4.2 |
| C10A A23U C35G C95G G128A | ≤ -4.2 |
| U9G G48C G62A U82A G84U | ≤ -4.2 |
| C10G A20U A52C G86A G92U A115U G152A | ≤ -4.2 |
| C10A C32G U44G C57U U82G G83A | ≤ -4.2 |
| U9G G88A C125G | ≤ -4.2 |
| C10A A16G C54U C85A C95U U135A | ≤ -4.2 |
| C10G A16U C57U G71C A91G C99A | ≤ -4.2 |
| U9G A19C C27A G42U C85U C87U C96A C108G G128U | ≤ -4.2 |
| U9G A119G U145A | ≤ -4.2 |
| U9G A40C C85A G86A | ≤ -4.2 |
| U9G C38A G62C G68C C76U C114U A120C G143A | ≤ -4.2 |
| C10G A20U G42C G62A C75A C87G G141A | ≤ -4.2 |
| U9G C18U A20G G25U C75G U144C | ≤ -4.2 |
| C10G A12C A29U A60G C87U G94C U139A | ≤ -4.2 |
| U9G C27A C51U A73C C87U C95U C114G G141C U148G | ≤ -4.2 |
| U9G A49U C85U | ≤ -4.2 |

| Variant | polymerase ribozyme fitness (log ratio) |
| --- | --- |
| C10A G67C C93G C99G A137U U146A | ≤ -4.2 |
| C10A A28U G58A C96U A122G G124C | ≤ -4.2 |
| U9G U13A G50C G86C A121U G143A | ≤ -4.2 |
| U9G C79U C99U C103A C116G C125U | ≤ -4.2 |
| U9C U55A C85U | ≤ -4.2 |
| C10A U33G A60G C75A A106U G117U A137C U144A | ≤ -4.2 |
| U9G U31G G42U U53A G58C | ≤ -4.2 |
| U9G A21C G34A G83U A138G A142C | ≤ -4.2 |
| U9G G46C C76A C85G U90G A121U | ≤ -4.2 |
| U9G G25U G59A A60U G70U | ≤ -4.2 |
| C10G A30C G92U A107G U148C A150U | ≤ -4.2 |
| C10G A17C U33A U55A A73G C87G | ≤ -4.2 |
| U9C G11U C18G C35U C75G C87G A89G A137U G143A | ≤ -4.2 |
| U9G G74U C75U C93U A98U C105U C108G | ≤ -4.2 |
| C10A U56G C57G G59A C79U G83C C99G | ≤ -4.2 |
| C10G A19U G46A C85A C105U | ≤ -4.2 |
| U9G C85A C103A C118G U134A | ≤ -4.2 |
| C10A C35U A97U | ≤ -4.2 |
| C10G A28C A29C C96G C99G | ≤ -4.2 |
| U9C U55G | -3.53 |
| C10G A39G G136C | ≤ -4.2 |

| Variant | polymerase ribozyme fitness (log ratio) |
| --- | --- |
| C10A U56A G59C C85U G86A G92A | ≤ -4.2 |
| C10A U31C C93A A97G U144C | ≤ -4.2 |
| C10G A21U A22U U55A G59C A142C | ≤ -4.2 |
| U9G G83U G88C C123G U148G C149U | ≤ -4.2 |
| C10G A24U A37C G92U | ≤ -4.2 |
| C10G A20U C51U A91U | ≤ -4.2 |
| U9G U61A C75A G94A A110G G140C | ≤ -4.2 |
| C10G A19G A47C C79G | ≤ -4.2 |
| U9G G74A G84A A107G | ≤ -4.2 |
| C10G C35U G58C A91G C95U C96A G100U | ≤ -4.2 |
| C10A U13G A23G U44G U102A A121U | ≤ -4.2 |
| C10A A16C A49U A98U A107C C116A U145A | ≤ -4.2 |
| C10G C36U U55A C95U G133U | ≤ -4.2 |
| C10G C27G G59U G88A C123A | ≤ -4.2 |
| U9G C27U C35U U55A G74A G94A U104A U148A | ≤ -4.2 |
| C10A C57U C95U C105A C116G | ≤ -4.2 |
| U9G G11C C76A G92C U134C U139G A150G | ≤ -4.2 |
| U9G U45G C57G A73G U101A C123A C129G | ≤ -4.2 |
| C10A C32A U56G G80C U82G C87U A98U | ≤ -4.2 |
| U9C G25A U31G A40U A52C C54U C57U G74A C96G C116U G128U | ≤ -4.2 |
| U9G A49C G68A C93U | ≤ -4.2 |

Reference: the RNAGym collection of RNA variant scans (doi:10.1073/pnas.2313332121)
